# Test results: PubChem BioAssay (Tox21)
# Several values for one entry are separate records, joined by “and”; a condition that tells them apart may be missing. Equal values may be shown once. The inconclusive results got no clear call from the source; some entries with a clear call stand among them for comparison. For some of these results: Where the call is inconclusive, the potency comes from a doubtful curve fit. A structure can be active in one record and inactive in another. Activity calls are given as the source filed them. Calls come from the whole dose curve; as a rule, active = well fitted curve in the direction sought with a large enough effect in the repeat runs; inconclusive = weak or mixed curves; inactive = no such curve, though single readings can be large; an effect the other way counts as inactive or inconclusive.
# Assays:
# [1] = Caspase-3/7 induction in HepG2 cells by small molecules, qHTS assay (AID 1346978); details: HepG2 caspase-3/7 activation, Caspase-Glo luminescence, 17 h; series mostly up to 92.4 µM; note: nearly all actives have a fitted effect of over 15% in size; note: potency is the fitted concentration of half-maximal effect
# Procedure, shortened: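 Wild-type HepG2 cells, 2,000/well, settled 5 hr at 37 C and 5% CO2, then compound-treated for 17 hr; caspase-3/7 activity read by luminescent Caspase-Glo 3/7 after 30 min at room temperature.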
# [2] = Caspase-3/7 induction in CHO-K1 cells by small molecules, qHTS cell viability counter screen (AID 1346979); details: CellTiter-Fluor fluorescence, 17 h; series mostly up to 92.4 µM; note: potency is the fitted concentration of half-maximal effect; nearly all actives have a fitted effect of over 35% in size
# Procedure, shortened: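 Wild-type CHO-K1 cells were seeded at 1,500 per well, rested 5hr at 37 C, then exposed to compounds in DMSO. After 16hr, CellTiter-Fluor reagent was added and fluorescence read 1hr later as the viability measure.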
# [3] = Caspase-3/7 induction in HepG2 cells by small molecules, qHTS cell viability counter screen (AID 1346981); details: CellTiter-Fluor fluorescence, 17 h; series mostly up to 92.4 µM; note: potency is the fitted concentration of half-maximal effect; nearly all actives have a fitted effect of over 30% in size
# Procedure, shortened: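 Steps: seed 2,000 HepG2 cells per well; incubate 5 hr at 37 C; pin-add compounds in DMSO; incubate 16 hr; add CellTiter-Fluor; after 1 hr at 37 C and 5% CO2, read fluorescence.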
# [4] = target: Cytochrome P450 2D6 (Homo sapiens) (UniProt P10635); assay: Cytochrome P450 Family 2 Subfamily D Member 6 (CYP2D6) small molecule antagonists: luciferase reporter qHTS assay (AID 1671196); details: P450-Glo CYP2D6 enzyme assay, luciferin luminescence, 1 h; series mostly up to 115 µM; note: nearly all actives have a fitted effect of over 50% in size; note: potency is the fitted concentration of half-maximal effect
# Procedure, shortened: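 P450-Glo format: CYP2D6 converts a proluciferin substrate to luciferin in an NADPH-driven reaction lasting 1 h at room temperature. Light output, proportional to CYP2D6 activity, reflects interference by test chemicals.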
# [5] = Caspase-3/7 induction in CHO-K1 cells by small molecules, qHTS assay (AID 1346980); details: CHO-K1 caspase-3/7 induction, Caspase-Glo luminescence, 17 h; series mostly up to 92.4 µM; note: potency is the fitted concentration of half-maximal effect; nearly all actives have a fitted effect of over 15% in size
# Procedure, shortened: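 Wild-type CHO-K1 cells exposed to compounds for 17hr at 37 C, 5% CO2. Caspase-3/7 activity then measured by Caspase-Glo 3/7 luminescence after 30min at room temperature.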
# [6] = target: Nuclear receptor subfamily 1 group I member 2 (Homo sapiens) (UniProt O75469); assay: Human pregnane X receptor (PXR) small molecule agonists, qHTS assay (AID 1346982); details: PXR-Luc HepG2, CYP3A4 luciferase reporter, 24 h; series mostly up to 92.4 µM; note: potency is the fitted concentration of half-maximal effect; nearly all actives have a fitted effect of over 35% in size
# Procedure, shortened: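 Agonist mode qHTS: PXR-Luc HepG2 cells plated 5 hr before DMSO-dissolved compounds were pinned in, cultured 24 hr at 37 C, 5% CO2; ONE-Glo luminescence readout.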
# [7] = target: Nuclear receptor subfamily 1 group I member 2 (Rattus norvegicus) (UniProt Q9R1A7); assay: Rat pregnane X receptor (rPXR) activation by small molecules, qHTS assay (AID 1346983); details: rPXR luciferase reporter cells, One-Glo luminescence, 24 h; max activation: stronger effect = higher value; note: potency is the fitted concentration of half-maximal effect; nearly all actives have a fitted effect of over 20% in size
# Procedure, shortened: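 Cell-based rPXR activation assay: rPXR cells, 2,000 per well, rested 5hr at 37 C, then exposed to compounds in DMSO for 24 hr at 37 C. Luciferase activity read by One-Glo luminescence after 30 min at room temperature.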
# [8] = target: Nuclear receptor subfamily 1 group I member 2 (Homo sapiens) (UniProt O75469); assay: Human pregnane X receptor (PXR) activation by small molecules, qHTS assay (AID 1346985); details: DPX-2 HepG2 CYP3A4-luciferase, 24 h; series mostly up to 38.3 µM; note: potency is the fitted concentration of half-maximal effect; nearly all actives have a fitted effect of over 40% in size
# Procedure, shortened: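 DPX-2 cells (HepG2 co-transfected with a PXR response element and a CYP3A4-promoter luciferase construct) were seeded at 2,000 per well, rested 5 hr at 37C, then exposed to DMSO-dissolved compounds for 24 hr. Activation was read as luciferase luminescence.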
# [9] = target: Cytochrome P450 2C19 (Homo sapiens) (UniProt P33261); assay: Cytochrome P450 Family 2 Subfamily C Member 19 (CYP2C19) small molecule antagonists: luciferase reporter qHTS assay (AID 1671197); details: P450-Glo CYP2C19 enzyme, luciferin luminescence, 1 h; series mostly up to 115 µM; note: nearly all actives have a fitted effect of over 65% in size; note: potency is the fitted concentration of half-maximal effect
# Procedure, shortened: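 Light output is proportional to CYP2C19 activity: proluciferin substrate is converted to luciferin, then detected by a luciferin detection reagent that also stops the 1 h, 37C NADPH-driven reaction. Ketoconazole serves as positive control.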
# [10] = target: Nuclear receptor subfamily 1 group I member 2 (Homo sapiens) (UniProt O75469); assay: CYP3A4 induction through human pregnane X receptor (PXR) by small molecules, qHTS assay (AID 1346984); details: DPX-2 HepG2 PXR, CYP3A4-luciferin luminescence, 24 h; series mostly up to 46.1 µM; note: nearly all actives have a fitted effect of over 40% in size
# Procedure, shortened: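 Steps: seed DPX-2 cells, 5 hr at 37C; pin-transfer compounds; 24 hr at 37C; add Luciferin-IPA (3uM final), 3 hr at 37C; add One-Glo, 30 min RT; read luminescence.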
# Tags give direction and shape of the fitted curve.
# Chain of UniProt P10635 (P10635 whole entry, looked up): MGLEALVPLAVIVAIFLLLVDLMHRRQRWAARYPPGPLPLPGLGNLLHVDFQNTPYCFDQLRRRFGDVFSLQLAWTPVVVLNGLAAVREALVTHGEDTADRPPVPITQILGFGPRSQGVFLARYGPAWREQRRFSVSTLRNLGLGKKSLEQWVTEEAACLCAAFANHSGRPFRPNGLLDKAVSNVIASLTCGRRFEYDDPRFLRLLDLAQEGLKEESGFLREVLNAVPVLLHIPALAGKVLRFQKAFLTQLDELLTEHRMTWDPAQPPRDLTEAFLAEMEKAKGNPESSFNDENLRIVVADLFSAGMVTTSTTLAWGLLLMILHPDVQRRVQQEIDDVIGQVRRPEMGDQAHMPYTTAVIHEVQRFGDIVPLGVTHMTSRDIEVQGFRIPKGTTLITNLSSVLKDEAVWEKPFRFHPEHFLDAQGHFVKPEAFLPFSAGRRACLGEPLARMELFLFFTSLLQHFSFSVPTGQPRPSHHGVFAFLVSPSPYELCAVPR
# Chain of UniProt P33261 (P33261 whole entry, looked up): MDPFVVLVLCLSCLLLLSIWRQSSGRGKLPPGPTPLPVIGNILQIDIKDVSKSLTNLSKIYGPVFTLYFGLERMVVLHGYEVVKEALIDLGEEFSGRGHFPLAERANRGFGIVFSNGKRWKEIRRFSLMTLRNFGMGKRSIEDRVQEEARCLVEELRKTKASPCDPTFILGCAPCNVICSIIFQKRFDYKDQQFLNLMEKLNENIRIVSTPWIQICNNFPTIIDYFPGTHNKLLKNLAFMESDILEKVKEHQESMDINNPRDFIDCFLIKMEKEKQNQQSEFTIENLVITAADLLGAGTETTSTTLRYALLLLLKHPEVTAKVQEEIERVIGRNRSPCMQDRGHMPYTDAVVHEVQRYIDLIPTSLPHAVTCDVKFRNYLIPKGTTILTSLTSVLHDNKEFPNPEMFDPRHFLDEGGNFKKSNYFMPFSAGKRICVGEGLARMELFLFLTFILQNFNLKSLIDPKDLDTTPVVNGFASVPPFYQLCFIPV
# Chain of UniProt Q9R1A7 (Q9R1A7 whole entry, looked up): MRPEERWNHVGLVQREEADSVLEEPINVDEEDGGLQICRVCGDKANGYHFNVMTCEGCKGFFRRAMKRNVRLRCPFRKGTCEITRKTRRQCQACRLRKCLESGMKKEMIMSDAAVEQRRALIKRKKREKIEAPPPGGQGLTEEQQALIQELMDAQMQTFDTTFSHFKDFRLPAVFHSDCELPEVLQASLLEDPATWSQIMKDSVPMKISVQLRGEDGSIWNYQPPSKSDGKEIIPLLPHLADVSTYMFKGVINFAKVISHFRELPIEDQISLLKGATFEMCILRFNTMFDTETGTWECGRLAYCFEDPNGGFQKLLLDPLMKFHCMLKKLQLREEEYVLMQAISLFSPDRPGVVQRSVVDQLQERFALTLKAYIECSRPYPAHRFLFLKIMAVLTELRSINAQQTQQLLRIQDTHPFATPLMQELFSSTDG
smiles,measurement,setting,value
CC(C)c1cccc(C(C)C)c1N1C(=O)c2ccc(O)cc2C1=O,Potency,[1],"inconclusive: 77 µM [activator, single point]"
same,Potency,[2],"inconclusive: 6.86 µM [cytotoxic, full curve]"
same,Potency,[3],"inconclusive: 27.3 µM [cytotoxic, full curve]"
CC(C)(c1cc(Br)c(OCCO)c(Br)c1)c1cc(Br)c(OCCO)c(Br)c1,Potency,[1],"inconclusive: 59.7 µM [activator, single point]"
same,Potency,[2],"inconclusive: 53.3 µM [cytotoxic, single point]"
same,Potency,[3],"inconclusive: 59.7 µM [cytotoxic, single point]"
same,Potency,[4],"inconclusive: 61.9 µM [inhibitor, partial curve]"
CC1=C(/C=C/C(C)=C/C=C/C(C)=C/C=O)C(C)(C)CCC1,Potency,[1],"inconclusive: 68.2 µM [activator, single point]"
same,Potency,[5],"inconclusive: 27.1 µM [activator, single point]"
C[C@@H](NCCCc1cccc(C(F)(F)F)c1)c1cccc2ccccc12,Potency,[1],"inconclusive: 33.5 µM [activator, single point]"
same,Potency,[2],"inconclusive: 33.5 µM [cytotoxic, single point]"
same,Potency,[5],"inconclusive: 33.5 µM [activator, single point]"
same,Potency,[3],"inconclusive: 33.5 µM [cytotoxic, single point]"
same,Potency,[6],"inconclusive: 8.41 µM [activator, partial curve]"
same,Potency,[7],"inconclusive: 7.94 µM [activator, partial curve, poor fit]"
same,Potency,[8],"inconclusive: 6.31 µM [activator, partial curve, poor fit]"
Cc1ccc(-c2cc(C(F)(F)F)nn2-c2ccc(S(N)(=O)=O)cc2)cc1,Potency,[1],active: 54.3 µM
same,Potency,[2],"inconclusive: 33.5 µM [cytotoxic, single point]"
same,Potency,[5],"inconclusive: 68.6 µM [activator, partial curve, poor fit]"
same,Potency,[3],active: 60.9 µM and active: 61.1 µM
same,Potency,[8],"inconclusive: 15.8 µM [activator, partial curve, poor fit]"
same,Potency,[9],"active: 28.1 µM and active: 50.2 µM and inconclusive: 38.9 µM [inhibitor, single point]"
CCCCCN=C(N)N/N=C/c1c[nH]c2ccc(OC)cc12,Potency,[1],active: 11.9 µM
same,Potency,[2],active: 29.8 µM
same,Potency,[8],"inconclusive: 15.8 µM [activator, partial curve, poor fit]"
NC1(c2ccc(-c3nc4ccn5c(=O)[nH]nc5c4cc3-c3ccccc3)cc2)CCC1,Potency,[1],inactive
same,Potency,[2],active: 26.6 µM
same,Potency,[6],inconclusive: 11.9 µM [activator]
same,Potency,[4],inactive
same,Potency,[9],inactive
Cc1cc2c(C(C)C)c(O)c(O)c(C=O)c2c(O)c1-c1c(C)cc2c(C(C)C)c(O)c(O)c(C=O)c2c1O,Potency,[1],"inconclusive: 33.5 µM [activator, single point]"
same,Potency,[2],active: 13.3 µM
same,Potency,[5],"inconclusive: 33.5 µM [activator, single point]"
same,Potency,[9],"inconclusive: 43.6 µM [inhibitor, single point]"
CC[C@H](C)C(=O)O[C@H]1C[C@@H](C)C=C2C=C[C@H](C)[C@H](CC[C@@H]3C[C@@H](O)CC(=O)O3)[C@H]21,Potency,[1],"inconclusive: 37.6 µM [activator, single point]"
same,Potency,[2],"inconclusive: 13.6 µM [cytotoxic, partial curve] and inconclusive: 33.5 µM [cytotoxic, single point]"
same,Potency,[3],"inconclusive: 33.5 µM [cytotoxic, single point]"
same,Potency,[8],"inconclusive: 17.8 µM [activator, partial curve, poor fit]"
same,Potency,[4],"active: 36.1 µM and inconclusive: 35.4 µM [inhibitor, partial curve] and inactive"
CCCCc1oc2ccccc2c1C(=O)c1cc(I)c(OCCN(CC)CC)c(I)c1,Potency,[1],"inconclusive: 48.9 µM [activator] and inconclusive: 33.5 µM [activator, single point]"
same,Potency,[2],"active: 48.9 µM and inconclusive: 33.5 µM [cytotoxic, single point]"
same,Potency,[5],"inconclusive: 48.9 µM [activator, single point]"
same,Potency,[3],"active: 48.9 µM and inconclusive: 29.8 µM [cytotoxic, single point]"
Clc1nc(C(Cl)(Cl)Cl)c(Cl)c(Cl)c1Cl,Potency,[1],"inconclusive: 68.6 µM [activator, partial curve, poor fit]"
same,Potency,[2],active: 30.6 µM
same,Potency,[5],active: 30.6 µM
CCCCCCCCCCCC(=O)NCCCN(C)C,Potency,[1],"inconclusive: 34.4 µM [activator, partial curve]"
same,Potency,[5],"inconclusive: 68.6 µM [activator, single point]"
CN1CCN(c2ccccc2/C=C2\SCCN(c3ccc(Cl)c(Cl)c3)C2=O)CC1,Potency,[1],active: 61.1 µM
same,Potency,[2],active: 61.1 µM
same,Potency,[5],"inconclusive: 68.6 µM [activator, single point]"
same,Potency,[6],"inconclusive: 3.44 µM [activator, partial curve]"
O=c1n(CC2CO2)c(=O)n(CC2CO2)c(=O)n1CC1CO1 (configuration not stated),Potency,[1],active: 68.2 µM
same,Potency,[2],active: 60.8 µM and active: 48.6 µM
same,Potency,[10],inactive
same,Potency,[4],inactive
same,Potency,[9],"inconclusive: 88.8 µM [inhibitor, single point]"
CN(C)C(=S)SC(=S)N(C)C,Potency,[1],active: 4.98 µM and active: 770 nM and active: 3.76 µM
same,Potency,[2],active: 1.4 µM and active: 433 nM and active: 2.11 µM
same,Potency,[5],"inconclusive: 0.243 µM [activator, single point]"
same,Potency,[3],"inconclusive: 55.9 µM [cytotoxic, partial curve] and active: 30.6 µM and inconclusive: 18.8 µM [cytotoxic, partial curve]"
same,Potency,[4],"inconclusive: 36.5 µM [inhibitor, partial curve] and inconclusive: 71 µM [inhibitor, partial curve, poor fit] and inconclusive: 34.7 µM [inhibitor, partial curve]"
CC(O)(c1ccc(Cl)cc1)c1ccc(Cl)cc1,Potency,[1],"inconclusive: 68.6 µM [activator, single point]"
same,Potency,[2],inconclusive: 68.6 µM [cytotoxic]
same,Potency,[4],"inconclusive: 63.3 µM [inhibitor, partial curve]"
same,Potency,[9],active: 0.113 µM
COc1cccc(-c2ccc(/C=C\CN3CCCCCC3)cc2Cl)c1,Potency,[1],"inconclusive: 60.9 µM [activator, single point]"
same,Potency,[2],"inconclusive: 60.9 µM [cytotoxic, single point]"
same,Potency,[5],"inconclusive: 60.9 µM [activator, single point]"
same,Potency,[6],"inconclusive: 12.1 µM [activator, partial curve]"
same,Potency,[9],active: 44.6 µM
Cc1cc(OCCOCC[N+](C)(C)Cc2ccccc2)ccc1C(C)(C)CC(C)(C)C,Potency,[1],"inconclusive: 24.2 µM [activator, partial curve] and inconclusive: 33.5 µM [activator, single point]"
same,Potency,[2],"active: 43 µM and inconclusive: 33.5 µM [cytotoxic, single point]"
same,Potency,[5],inconclusive: 33.5 µM [activator]
same,Potency,[3],"active: 54.2 µM and inconclusive: 33.5 µM [cytotoxic, single point]"
same,Potency,[4],active: 17.7 µM and active: 13.8 µM
same,Potency,[9],"inconclusive: 3.47 µM [inhibitor, full curve, poor fit]"
CCCCCCCCOC(=O)c1ccc(O)cc1,Potency,[1],active: 27.3 µM
same,Potency,[2],"inconclusive: 68.4 µM [cytotoxic, single point]"
Cc1c(C)n(Cc2ccccc2)c2ccc(C(=O)OCCN(C)C)cc12,Potency,[1],"inconclusive: 33.5 µM [activator, single point]"
same,Potency,[2],"inconclusive: 23.7 µM [cytotoxic, partial curve]"
same,Potency,[3],"inconclusive: 21.1 µM [cytotoxic, partial curve]"
same,Potency,[8],"inconclusive: 15.8 µM [activator, partial curve, poor fit]"
same,Potency,[4],"inconclusive: 15.5 µM [inhibitor, partial curve]"
CC[C@H](c1ccc(O)cc1)[C@@H](CC)c1ccc(O)cc1,Potency,[1],inconclusive: 61.1 µM [activator]
same,Potency,[2],"inconclusive: 33.5 µM [cytotoxic, single point]"
same,Potency,[6],"inconclusive: 18.8 µM [activator, partial curve, poor fit]"
same,Potency,[8],"inconclusive: 12.6 µM [activator, single point]"
Cc1ccc(O)c2ncccc12,Potency,[1],"inconclusive: 29.8 µM [activator, partial curve, poor fit]"
CCCCCCCCCCCCN(CCO)CCO,Potency,[1],active: 30.5 µM
same,Potency,[5],"inconclusive: 68.3 µM [activator, single point]"
C=C(c1ccc(C(=O)O)cc1)c1cc2c(cc1C)C(C)(C)CCC2(C)C,Potency,[1],active: 68.6 µM
same,Potency,[2],"inconclusive: 33.5 µM [cytotoxic, single point]"
same,Potency,[5],"inconclusive: 68.6 µM [activator, single point] and inconclusive: 33.5 µM [activator, single point]"
same,Potency,[3],"inconclusive: 68.6 µM [cytotoxic, single point] and inconclusive: 33.5 µM [cytotoxic, single point]"
same,Potency,[6],"inconclusive: 19.3 µM [activator, partial curve]"
same,Potency,[9],inconclusive: 27.5 µM [inhibitor]
